Source: PubChem BioAssay AID485281 (National Center for Advancing Translational Sciences (NCATS), 2010)
Out of some 350,000 compounds screened, about 260 (0.074%) were called active. The inconclusive results got no clear call from the source; some entries with a clear call stand among them for comparison. Calls come from the whole dose curve; as a rule, active = well fitted inhibition curve with a large enough effect; inconclusive = small, poorly fitted or top-dose-only effect; inactive = no such curve, though single readings can be large or run the other way. Potencies beside an inconclusive call are fits to weak or partial responses and may not hold up.

Biological target: Ferritin light chain (Equus caballus) (UniProt P02791)
Test: qHTS Assay for Identification of Novel General Anesthetics; note: nearly all actives have a fitted effect of over 20% in size
Conditions: apoferritin/1-aminoanthracene competitive binding, fluorescence; activity change, negative = displacement: at 77.5 µM (top of the series)
Method in brief: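 Horse-spleen apoferritin (10 uM) was mixed with 50% saturated 1-aminoanthracene in PBS, exposed to compounds for 10 min at room temperature, and read for fluorescence (ex 380 nm, em 535 nm). Competitive displacement was fitted with a four-parameter Hill equation.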
% is set by controls: 0 for no effect and ±100 for the full control effect; potency is the fitted concentration of half-maximal effect; tags give direction and shape of the fitted curve.

Sequence of UniProt P02791 (P02791 whole entry, looked up): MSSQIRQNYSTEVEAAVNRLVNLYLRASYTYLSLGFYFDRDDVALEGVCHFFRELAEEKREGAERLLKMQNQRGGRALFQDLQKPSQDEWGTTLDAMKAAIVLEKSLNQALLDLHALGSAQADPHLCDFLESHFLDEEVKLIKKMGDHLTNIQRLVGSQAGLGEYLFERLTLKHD

Potency, inactive:
CCOC(=O)Nc1ccc2c(c1)N(C(=O)CCN1CCOCC1)c1ccccc1S2

Potency, inconclusive:
O=C(CCc1ccccn1)N1CCCC(Nc2ccc(F)cc2)C1 (stereo not drawn) 39.8 µM [inhibitor, single point]
Cc1ccc(CSc2nsc(C)c2C#N)cc1 35.5 µM [inhibitor, single point]
O=C(/C=C/c1ccccc1)NCCSCc1ccccc1 39.8 µM [inhibitor, single point]
COc1ccc(OCc2cnc(Cl)s2)cc1 50.1 µM [inhibitor, single point]
CC(C)NS(=O)(=O)c1ccc(NC(=S)NC(=O)c2ccc(-c3ccccc3)cc2)cc1 39.8 µM [inhibitor, partial curve]
CCCCCCCSc1nc(N)cc(=O)[nH]1 3.98 µM [inhibitor, full curve]
COc1ccc(C(=O)Nc2cccc(NC(=O)c3cccs3)c2)cc1 25.1 µM [inhibitor, partial curve]
Clc1ccccc1-c1nn2c(Cn3cnc4ccccc43)nnc2s1 28.2 µM [inhibitor, partial curve]
Cc1cc2ccccn2c1C(=O)c1ccc(C#N)cc1 35.5 µM [inhibitor, single point]
CCc1ccc(OCC(=O)NC(=S)Nc2cccc(CO)c2)c(Br)c1 31.6 µM [inhibitor, partial curve]
O=C(CSc1nc2ccccc2n1Cc1ccccc1Cl)N/N=C/c1ccccc1C(=O)O 20 µM [inhibitor, partial curve]
O=C(CSc1nc2nccnc2c(=O)n1CCc1c[nH]c2ccccc12)Nc1ccccc1F 3.55 µM [inhibitor, full curve, poor fit]
Oc1ccccc1Nc1nc(-c2ccccc2)c2cc(Cl)ccc2n1 0.251 µM [inhibitor, full curve, poor fit]
COc1ccc(-c2noc(-c3ccoc3C)n2)cc1OC 35.5 µM [inhibitor, single point]
Cc1ccc(NC(=O)COc2ccccc2)cc1Cl 10 µM [inhibitor, partial curve]
Cc1cccc(NC(=O)Nc2nnc(N(C)C3CCCCC3)s2)c1C 11.2 µM [inhibitor, single point]
O=C(COC(=O)c1ccccc1NC(=O)c1ccco1)Nc1ncc(Cl)cc1Cl 44.7 µM [inhibitor, single point]
CC(C)CNS(=O)(=O)c1ccc(CC(C)C)cc1 25.1 µM [inhibitor, single point]
O=C(OC1CCc2ccccc2C1=O)c1ccccc1O (stereo not drawn) 35.5 µM [inhibitor, single point]
Cc1cc(C(C)(C)C)ccc1OCCOCCN1CCCC1 35.5 µM [inhibitor, single point]
CC(=O)N1c2ccc(S(=O)(=O)NCC3CCC(C(=O)N4CC(C)CC(C)C4)CC3)cc2CC1C (stereo not drawn) 25.1 µM [inhibitor, partial curve]
Cc1ccc(C)c(NC(=O)CCC(=O)OC(C(=O)c2ccccc2)c2ccccc2)c1 (stereo not drawn) 31.6 µM [inhibitor, single point]
CC(NC(N)=O)C(=O)OCc1ccc(Cl)cc1Cl (stereo not drawn) 39.8 µM [inhibitor, partial curve]
O=C(N/N=C/c1ccco1)c1cc(-c2ccc(Cl)s2)[nH]n1 31.6 µM [inhibitor, partial curve]
CSc1cccc(NC(=O)COc2ccccc2)c1 20 µM [inhibitor, partial curve]
CCc1nnc(NC(=O)CSc2nnc(-c3cc4ccccc4cc3O)n2CC)s1 44.7 µM [inhibitor, single point]
CCN1C(=NCc2ccco2)N[C@@H](c2cccc(F)c2)C(C(=O)OC)=C1C 25.1 µM [inhibitor, single point]
COc1cccc(/C=C/C(=O)OCC(=O)Nc2cccc(S(=O)(=O)N3CCOCC3)c2)c1OC 28.2 µM [inhibitor, partial curve]
OCc1cn(-c2ccccc2)nc1-c1ccco1 22.4 µM [inhibitor, partial curve]
CC(C)(C)c1ccc(-c2cc(N)n[nH]2)cc1 50.1 µM [inhibitor, single point]
O=C(Nc1ccc(Br)c(Cl)c1)c1ccco1 44.7 µM [inhibitor, single point]
O=[N+]([O-])c1ccc(N/N=C2\CC3CC=CC23)cc1 (stereo not drawn) 22.4 µM [inhibitor, partial curve]
O=C(NC(=S)NCCc1ccccc1)c1cccc(Cl)c1 31.6 µM [inhibitor, single point]
COc1ccc(C(c2nnnn2Cc2ccccc2)N2CCN(C(=O)c3ccco3)CC2)cc1 (stereo not drawn) 31.6 µM [inhibitor, partial curve]
CCc1cccc2c1NC(=O)[C@]21[C@@H]2C(=O)N(Cc3ccccc3)C(=O)[C@@H]2[C@@H]2CCCN21 28.2 µM [inhibitor, partial curve]
CCn1cc(C(=O)N2CCN(c3cccc(Cl)c3)CC2)c(=O)c2cc(S(=O)(=O)N3CCOCC3)ccc21 28.2 µM [inhibitor, partial curve]
O=C(CCCN1C(=O)/C(=C/c2ccccc2)SC1=S)Nc1ccc(O)cc1 28.2 µM [inhibitor, partial curve]
O=C(/C(C=Nc1cc2c(oc1=O)CCCC2=O)=C(\O)c1ccccc1)c1ccccc1 31.6 µM [inhibitor, partial curve]
COc1ccc(N=C2NC(=O)/C(=C\c3ccco3)S2)cc1 31.6 µM [inhibitor, partial curve]
CC12CC3CC(C)(C1)CC(C(=O)N1CCCC1)(C3)C2 50.1 µM [inhibitor, single point]
COc1cccc(CNC(=O)c2csc3c2CCCC3)c1 17.8 µM [inhibitor, partial curve]
Cc1cccc(N2CCN(C(=O)Cn3nc(C)c4sc5ccccc5c4c3=O)CC2C)c1 (stereo not drawn) 11.2 µM [inhibitor, single point]
Cc1ccc2c(cnn2C(=O)CCC(=O)N2CCCCC2C)c1 (stereo not drawn) 28.2 µM [inhibitor, partial curve]
Cc1ccc(Cl)cc1NC(=S)N1CCCCCC1 22.4 µM [inhibitor, partial curve]
CCN(CC)CCN(Cc1cc2ccc(C)c(C)c2[nH]c1=O)C(=S)NCc1ccco1 17.8 µM [inhibitor, partial curve]
Cc1ccc(NC(=O)Cc2nnc(SCC(=O)c3ccc(Br)cc3)n2C)cc1 20 µM [inhibitor, partial curve]
COCCNC(=O)c1cc2c3ccccc3n(C)c2s1 28.2 µM [inhibitor, single point]

Activity change, negative = displacement, inactive:
Fc1ccc(CN2CCN(C(=S)NCCc3ccccc3)CC2)c(Cl)c1 0.532%
CCCCCCCNC(=O)C1(CC2CC(c3cccc(Br)c3)=NO2)CCNCC1 (stereo not drawn) -21.5%
CCCn1c(-c2cc(OC)c(OC)c(OC)c2)nc2c1c(=O)[nH]c(=O)n2Cc1ccccc1 -6.08%
COc1ccc(N2CCN(C(=O)c3cc4c(-c5ccccc5F)nn(C)c4s3)CC2)cc1 4.46%
COc1ccc(OC)c(NC2=C(c3ccccc3)C(=O)c3ccccc32)c1 -5.98%
O=C(Cn1ncc2c(=O)oc3ccccc3c21)Nc1cc(F)ccc1F 20.4%
FC(F)(F)c1cccc(N2CCN(Cc3ccoc3)CC2)c1 2.24%
S=c1[nH]nc(COc2ccccc2)n1/N=C/c1ccccn1 -12%
O=C1CS(=O)(=O)C2(C(=O)N(Cc3cccc(F)c3)c3ccccc32)N1c1ccccc1 (stereo not drawn) 6.83%
COc1ccc(-c2cc(C(F)(F)F)c(C#N)c(SCC(=O)Nc3ccccc3C#N)n2)cc1 57.3%
Cc1ccc(NC(=O)c2nc(S(C)(=O)=O)ncc2N(Cc2ccccc2)Cc2ccco2)c(C)c1 -9.28%
C=CCn1c(SCc2nc3ccccc3c(=O)[nH]2)nc2scc(C3CC3)c2c1=O -14.1%
COc1ccccc1C(=O)NCCSCc1ccccc1Cl -23.8%
c1ccc(-c2nc3ccccc3[nH]2)nc1 -9.68%
Cc1ccc(C2CC(=O)N(Cc3ccccc3F)c3c2c(C)nn3-c2nc(C)cc(C)n2)cc1 (stereo not drawn) -10.3%
Brc1ccc(-c2nnc3sc(CN4CCC5(CC4)OCCO5)cn23)cc1 29.9%
Nc1cc2nsnc2cc1Br 85.1%
CCOC(=O)C1(CCOc2ccccc2)CCN(Cc2cccn2-c2ncccn2)CC1 -10.9%
O=C(Nc1ccc(CN2CCOCC2)cc1)c1ccccc1F -8.18%
O=c1c(-c2ccc(O)cc2)coc2cc(O)cc(O)c12 3.37%
O=C(O)CCC(=O)NN1C(=O)c2ccccc2NC1c1ccco1 (stereo not drawn) 4.17%
COc1ccc(-c2onc(C)c2C)cc1S(=O)(=O)NC1CCCCC1 -15.5%
CCCC(=O)NC1CC(=O)N(c2ccc3c(c2)OCCO3)C1 (stereo not drawn) 1.14%
Cc1ccnc(N(C(=O)Nc2ccccc2)C2=NCC(C)(C)S2)c1 -1.11%
CN(C)S(=O)(=O)c1ccc(NC(=O)CN2CCC(Cc3ccccc3)CC2)cc1 -1.26%
